The other results are listed elsewhere or left out.
How the values were obtained:
Experiment in all cases: glycan array binding signal (z-score within array); higher = stronger binding
Conditions in all cases: glycan notation: IUPAC condensed, linker removed
[1] = target: Gal(b1-4)GlcNAc(b1-3)Gal(b1-4)GlcNAc(b1-6)[Gal(b1-3)]GalNAc
Summary of the method: (§1)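 Glycan array binding is given as a within-array Z-score, which can be read as non-binding when negative. The arrays, 3228 of them, came from the Consortium for Functional Glycomics database and were retained only where the protein sequence was available. Z-scores were averaged across arrays of the same protein sequence at different concentrations or buffers and across linkers.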

[2] = target: Gal(b1-4)GlcNAc(b1-3)Gal(b1-4)[Fuc(a1-3)]GlcNAc(b1-3)Gal(b1-4)[Fuc(a1-3)]GlcNAc
Summary of the method: as §1

[3] = target: Gal(b1-4)GlcNAc(b1-3)GalNAc
Summary of the method: as §1

[4] = target: Gal(b1-4)GlcNAc(b1-3)[Fuc(a1-3)GlcNAc(b1-6)]Gal(b1-4)Glc
Summary of the method: as §1

[5] = target: Gal(b1-4)GlcNAc(b1-3)[Gal(b1-4)GlcNAc(b1-6)]Gal(b1-4)GlcNAc
Summary of the method: as §1

[6] = target: Gal(b1-4)GlcNAc(b1-3)[GlcNAc(b1-6)]Gal(b1-4)GlcNAc
Summary of the method: as §1

[7] = target: Gal(b1-4)GlcNAc(b1-6)Gal(b1-4)GlcNAc
Summary of the method: as §1

[8] = target: Gal(b1-4)GlcNAc(b1-6)GalNAc
Summary of the method: as §1

[9] = target: Gal(b1-4)GlcNAc(b1-6)[Gal(b1-3)]GalNAc
Summary of the method: as §1

[10] = target: Gal(b1-4)GlcNAc(b1-6)[Gal(b1-4)GlcNAc(b1-3)]GalNAc
Summary of the method: as §1

Gal(b1-4)GlcNAc6P = target: Gal(b1-4)GlcNAc6P
Summary of the method: as §1

Gal(b1-6)Gal = target: Gal(b1-6)Gal
Summary of the method: as §1

Gal3S(b1-3)GalNAc = target: Gal3S(b1-3)GalNAc
Summary of the method: as §1

Gal3S(b1-3)GlcNAc = target: Gal3S(b1-3)GlcNAc
Summary of the method: as §1

[11] = target: Gal3S(b1-3)[Fuc(a1-4)]GlcNAc
Summary of the method: as §1

Gal3S(b1-4)Glc = target: Gal3S(b1-4)Glc
Summary of the method: as §1

Gal3S(b1-4)Glc6S = target: Gal3S(b1-4)Glc6S
Summary of the method: as §1

Gal3S(b1-4)GlcNAc = target: Gal3S(b1-4)GlcNAc
Summary of the method: as §1

[12] = target: Gal3S(b1-4)[Fuc(a1-3)]Glc6S
Summary of the method: as §1

[13] = target: Gal3S(b1-4)[Fuc(a1-3)]GlcNAc
Summary of the method: as §1

[14] = target: Gal3S(b1-4)[Fuc(a1-3)]GlcNAc6S
Summary of the method: as §1

Gal3S4S(b1-4)GlcNAc = target: Gal3S4S(b1-4)GlcNAc
Summary of the method: as §1

Gal3S6S(b1-4)GlcNAc = target: Gal3S6S(b1-4)GlcNAc
Summary of the method: as §1

Gal3S6S(b1-4)GlcNAc6S = target: Gal3S6S(b1-4)GlcNAc6S
Summary of the method: as §1

Gal4S(b1-4)GlcNAc = target: Gal4S(b1-4)GlcNAc
Summary of the method: as §1

Gal4S6S(b1-4)GlcNAc = target: Gal4S6S(b1-4)GlcNAc
Summary of the method: as §1

Gal6P(b1-4)GlcNAc = target: Gal6P(b1-4)GlcNAc
Summary of the method: as §1

Gal6S(b1-3)GlcNAc = target: Gal6S(b1-3)GlcNAc
Summary of the method: as §1

Gal6S(b1-3)GlcNAc6S = target: Gal6S(b1-3)GlcNAc6S
Summary of the method: as §1

Gal6S(b1-4)Glc = target: Gal6S(b1-4)Glc
Summary of the method: as §1

Gal6S(b1-4)Glc6S = target: Gal6S(b1-4)Glc6S
Summary of the method: as §1

Gal6S(b1-4)GlcNAc = target: Gal6S(b1-4)GlcNAc
Summary of the method: as §1

Gal6S(b1-4)GlcNAc6S = target: Gal6S(b1-4)GlcNAc6S
Summary of the method: as §1

GalNAc(a1-3)Gal = target: GalNAc(a1-3)Gal
Summary of the method: as §1

GalNAc(a1-3)GalNAc = target: GalNAc(a1-3)GalNAc
Summary of the method: as §1

[15] = target: GalNAc(a1-3)GalNAc(b1-3)Gal(a1-4)Gal(b1-4)Glc
Summary of the method: as §1

[16] = target: GalNAc(a1-3)GalNAc(b1-3)Gal(a1-4)Gal(b1-4)GlcNAc
Summary of the method: as §1

GalNAc(b1-3)Gal = target: GalNAc(b1-3)Gal
Summary of the method: as §1

[17] = target: GalNAc(b1-3)Gal(a1-4)Gal(b1-4)GlcNAc
Summary of the method: as §1

[18] = target: GalNAc(b1-3)Gal(a1-4)Gal(b1-4)GlcNAc(b1-3)Gal(b1-4)Glc
Summary of the method: as §1

[19] = target: GalNAc(b1-3)Gal(a1-6)Gal(b1-4)Glc
Summary of the method: as §1

GalNAc(b1-3)GalNAc = target: GalNAc(b1-3)GalNAc
Summary of the method: as §1

GalNAc(b1-3)GlcNAc = target: GalNAc(b1-3)GlcNAc
Summary of the method: as §1

GalNAc(b1-4)Gal(b1-4)Glc = target: GalNAc(b1-4)Gal(b1-4)Glc
Summary of the method: as §1

GalNAc(b1-4)GlcNAc = target: GalNAc(b1-4)GlcNAc
Summary of the method: as §1

B1: Pwp2 (Candida glabrata) (protein)
chain: MGSSHHHHHHSSGLVPRGSHMASKNPVELNNVCTFPNDYGRIPGFTVLVGRLGLLISASDYKELLRYPGAFLIATQDTMTTSPNFELTGFPFFTGLYGLTVFPLDLLVELRGYFVPPNSGQYTFTLSDSDDAAIIFLGNPSAFPCGDLQNWPKPSEEDITVTDHLFPSRTLYLIEGVAYPMRIAYYNGIGAGRLNAAFIDPSGTRHTNWEGYIWQYDPCSTCTYS
[1]
  glycan array binding signal (z-score): -0.628
[2]
  glycan array binding signal (z-score): -0.588
[3]
  glycan array binding signal (z-score): -0.473
[4]
  glycan array binding signal (z-score): -0.42
[5]
  glycan array binding signal (z-score): -0.492
[6]
  glycan array binding signal (z-score): -0.106
[7]
  glycan array binding signal (z-score): -0.453
[8]
  glycan array binding signal (z-score): -0.542
[9]
  glycan array binding signal (z-score): 1.6
[10]
  glycan array binding signal (z-score): -0.548
Gal(b1-4)GlcNAc6P
  glycan array binding signal (z-score): -0.213
Gal(b1-6)Gal
  glycan array binding signal (z-score): -0.135
Gal3S(b1-3)GalNAc
  glycan array binding signal (z-score): -0.489
Gal3S(b1-3)GlcNAc
  glycan array binding signal (z-score): -0.464
[11]
  glycan array binding signal (z-score): 0.007
Gal3S(b1-4)Glc
  glycan array binding signal (z-score): -0.429
Gal3S(b1-4)Glc6S
  glycan array binding signal (z-score): -0.394
Gal3S(b1-4)GlcNAc
  glycan array binding signal (z-score): -0.274
[12]
  glycan array binding signal (z-score): 0.408
[13]
  glycan array binding signal (z-score): -0.293
[14]
  glycan array binding signal (z-score): -0.372
Gal3S4S(b1-4)GlcNAc
  glycan array binding signal (z-score): -0.663
Gal3S6S(b1-4)GlcNAc
  glycan array binding signal (z-score): -0.853
Gal3S6S(b1-4)GlcNAc6S
  glycan array binding signal (z-score): -0.545
Gal4S(b1-4)GlcNAc
  glycan array binding signal (z-score): -0.626
Gal4S6S(b1-4)GlcNAc
  glycan array binding signal (z-score): -0.555
Gal6P(b1-4)GlcNAc
  glycan array binding signal (z-score): -0.372
Gal6S(b1-3)GlcNAc
  glycan array binding signal (z-score): -0.708
Gal6S(b1-3)GlcNAc6S
  glycan array binding signal (z-score): -0.223
Gal6S(b1-4)Glc
  glycan array binding signal (z-score): -0.421
Gal6S(b1-4)Glc6S
  glycan array binding signal (z-score): -0.419
Gal6S(b1-4)GlcNAc
  glycan array binding signal (z-score): -0.694
Gal6S(b1-4)GlcNAc6S
  glycan array binding signal (z-score): -0.679
GalNAc(a1-3)Gal
  glycan array binding signal (z-score): -0.695
GalNAc(a1-3)GalNAc
  glycan array binding signal (z-score): -0.731
[15]
  glycan array binding signal (z-score): -0.47
[16]
  glycan array binding signal (z-score): -0.401
GalNAc(b1-3)Gal
  glycan array binding signal (z-score): 0.43
[17]
  glycan array binding signal (z-score): -0.501
[18]
  glycan array binding signal (z-score): -0.304
[19]
  glycan array binding signal (z-score): -0.439
GalNAc(b1-3)GalNAc
  glycan array binding signal (z-score): 1.1
GalNAc(b1-3)GlcNAc
  glycan array binding signal (z-score): 0.401
GalNAc(b1-4)Gal(b1-4)Glc
  glycan array binding signal (z-score): 0.196
GalNAc(b1-4)GlcNAc
  glycan array binding signal (z-score): 0.045

— the supplement of paper PMC8728848
